Measured values taken from PubChem BioAssay AID1745853 (National Center for Advancing Translational Sciences (NCATS), 2022).
The list shows a part of the results. Further columns of the screen follow, without active or inactive calls.

Legend:
Experiment in all cases: Primary Screen for Target Class Profiling of Small Molecule Inhibitors of Methyltransferases
[1] = biological target: Glycine N-methyltransferase (Homo sapiens) (UniProt Q14749); settings: purified enzyme, MTase-Glo SAH luminescence; measured here: GNMT inhibition; at 40 µM; stronger effect = lower value
Outline: (§1)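 Each enzyme was assayed with SAM and its substrate. SAH formation detected by MTase-Glo luminescence; single-point 40 uM screen[…].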

[2] = biological target: Guanidinoacetate N-methyltransferase (Homo sapiens) (UniProt Q14353); settings: purified enzyme, MTase-Glo SAH luminescence; measured here: GAMT inhibition; at 40 µM; stronger effect = lower value
Outline: as §1

[3] = biological target: Histamine N-methyltransferase (Homo sapiens) (UniProt P50135); settings: purified enzyme, MTase-Glo SAH luminescence; measured here: HNMT inhibition; at 40 µM; stronger effect = lower value
Outline: as §1

[4] = biological target: Nicotinamide N-methyltransferase (Homo sapiens) (UniProt P40261); settings: purified enzyme, MTase-Glo SAH luminescence; measured here: NNMT inhibition; at 40 µM; stronger effect = lower value
Outline: as §1

[5] = biological target: Phenylethanolamine N-methyltransferase (Homo sapiens) (UniProt P11086); settings: purified enzyme, MTase-Glo SAH luminescence; measured here: PNMT inhibition; at 40 µM; stronger effect = lower value
Outline: as §1
% is scaled to controls: 0 for no effect and ±100 for the full control effect.

Row | SMILES | activity change, negative = inhibition [1] [%] | activity change, negative = inhibition [2] [%] | activity change, negative = inhibition [3] [%] | activity change, negative = inhibition [4] [%] | activity change, negative = inhibition [5] [%]
1 | COC(=O)C(C)(N)Cc1ccc(O)cc1 (stereo not given) | -0.261 | 4.6 | 2.1 | -3.23 | 6.72
2 | Cc1ccc(NC(=O)Cn2nc3n(C)c(=O)c4ccc(C(=O)NCC(C)C)cc4n3c2=O)cc1 | 5.81 | 4.69 | 9.95 | 3.17 | 6.64
3 | Cc1sc2ncn(CC(=O)NCc3cccs3)c(=O)c2c1S(=O)(=O)N1CCC(C)CC1 | -10.1 | 3.22 | -3.09 | -3.06 | -10
4 | CCC(C)NC(=O)c1ccc2c(=O)n(Cc3ccccc3)c3nn(Cc4ccc(F)cc4)c(=O)n3c2c1 (stereo not given) | 8.28 | 0 | 3.5 | 7.72 | 6.65
5 | CC1OC(OC2C(OC3C(O[C@H]4CC[C@@]5(C)C(CC[C@]6(C)C5CC=C5C7CC(C)(C)CC(O)[C@]7(C)CC[C@]56C)C4(C)C)OC(C(=O)O)C(O)C3O)OCC(O)C2O)C(O)C(O)C1O (stereo not given in full) | 2.18 | 10.2 | 10.6 | -12.8 | 7.58
6 | COc1ccc(CNC(=O)Cn2c(=O)oc3cc(S(=O)(=O)N4CCC(C)CC4)ccc32)cc1 | -9.77 | 3.55 | -2.71 | -22.4 | -11.5
7 | Cc1ccc(NC(=O)Cn2nc3n(C)c(=O)c4ccc(C(=O)NC5CCCC5)cc4n3c2=O)c(C)c1 | 4.74 | 0 | 4.6 | 4.39 | 3.78
8 | CC(C)c1noc(-c2cn(C3CCN(C(=O)C4(c5ccccc5)CC4)CC3)nn2)n1 | -1.01 | 0.712 | 0.806 | 0.768 | -0.546
9 | COc1ccccc1NS(=O)(=O)c1ccc2c(c1)NC(=O)C(C)C(=O)N2 (stereo not given) | -6.11 | 0.914 | -6.13 | 0.958 | -6.58
10 | COc1cccc(CNC(=O)c2ccc3c(=O)nc4c(-c5cccc(F)c5)n[nH]n4c3c2)c1 | -7.52 | 0 | -1.09 | -2.12 | -3.09
11 | COc1cc(N2CCC(N)CC2)ccc1Nc1ncc(Cl)c(-c2c[nH]c3ccccc23)n1 | -25.4 | -5.79 | -74.5 | -42.2 | -21.7
12 | Cc1oc2ccccc2c1CNC(=O)NCc1cccs1 | -1.71 | -12.5 | -2.33 | -29.9 | -7.78
13 | CCOC(=O)Cc1c(-c2ccccc2)c2cc(Cl)ccc2[nH]c1=O | -2.03 | -0.143 | 0.969 | -15.5 | -1.28
14 | CC1=C2[C@@H]([C@H](C)CC[C@H]2/C=C(\C)C(=O)O)[C@H](O)C1 | -3.74 | -4.83 | -0.751 | -16.3 | 0.587
15 | O=S(=O)(NCc1cccc2ccccc12)c1cc(Cl)c(Oc2cccc(N3CCNCC3)c2)s1 | -0.706 | -13.1 | -4.08 | -18.8 | -5.05
16 | CC1=C2CC3C(CCC3(C)O)C(C)(O)CC2OC1=O (stereo not given) | -0.44 | -1.09 | 5.86 | -11.4 | -4.18
17 | Cc1ccc(-n2ccnc2-c2cc3n(n2)CCNC3)cc1N1CCCC1=O | -1.06 | 0.504 | -2.25 | -1.25 | 1.21
18 | O=c1c2ccccc2n2c(-c3ccccc3O)nnc2n1Cc1ccc(F)cc1 | -0.539 | 0 | 8.55 | 4.71 | 1.84
19 | O=c1[nH]c2cc(Br)c(S(=O)(=O)NCCN3CCN(c4ccccc4F)CC3)cc2[nH]1 | 0.561 | 0 | -1.95 | -5.87 | -3.45

Row | SMILES | activity change, negative = inhibition [1] [%] | activity change, negative = inhibition [2] [%] | activity change, negative = inhibition [3] [%] | activity change, negative = inhibition [4] [%] | activity change, negative = inhibition [5] [%]
20 | Cc1ccccc1NC(=O)Cn1nc2n(C(C)C)c(=O)c3ccc(C(=O)NCC(C)C)cc3n2c1=O | 7.78 | 0.094 | 11.1 | 6.7 | 8.03
21 | Fc1ccc(-c2cc(C3CCNCC3)[nH]n2)cc1 | -9.61 | -8.29 | -8.99 | -12.5 | -15
22 | C[C@@H](NC(=O)c1cc(C(=O)N[C@@H](Cc2ccccc2)[C@H](O)CNC2CC2)cc(N(C)S(C)(=O)=O)c1)c1ccccc1 | -0.862 | -1.8 | -2.89 | -11.2 | -7.2
23 | CCCCN1C(=O)c2cc(C(=O)Nc3ccc(C)c(C)c3)nn2CC1(C)C(=O)NC1CCCC1 (stereo not given) | 3.15 | 0 | -24.7 | 1.86 | 2.63
24 | CC(C(=O)NCc1ccccc1Cl)n1ccc2cc(S(=O)(=O)N3CCCCC3)ccc21 (stereo not given) | -0.022 | 5.17 | 4.62 | -2.5 | 1.42
25 | CCc1cccc(NC(=O)c2cc3n(n2)CC(C)(C(=O)NC2CCCCCC2)N(C)C3=O)c1 (stereo not given) | 0.171 | 2.28 | -0.205 | -0.463 | -0.774
26 | Cc1nnc2n1CCC(N(C)S(=O)(=O)c1cccnc1)CC2 (stereo not given) | -0.098 | 0.301 | -0.06 | 3.25 | 6.03
27 | CC(C)CNC(=O)c1ccc2c(=O)n(CC(C)C)c3nn(CC(=O)Nc4ccccc4F)c(=O)n3c2c1 | -0.635 | 0 | 2.9 | -5.01 | -0.247
28 | Nc1[nH]nc2nnc(-c3c(-c4ccccc4)nn4ccccc34)cc12 | -92.1 | -84.2 | -92.3 | -89.3 | -91
29 | CC(C)c1cc(C(=O)NCc2cccnc2Oc2cccc(C(F)(F)F)c2)n[nH]1 | -5.23 | 1.88 | -4.24 | -3.4 | 3.44
30 | Nc1nc2c(c(=O)[nH]1)CCN(C(=O)Cc1c[nH]c3ccccc13)C2 | -4.89 | -6.36 | -1.81 | -9.49 | -5.7
31 | CCN1C(=O)c2cc(C(=O)NCCc3ccc(Cl)cc3)nn2CC1(C)C(=O)NC1CCCC1 (stereo not given) | -0.134 | 3 | 0.742 | -0.375 | -1.4
32 | COc1ccc(CN2C(=O)c3cc4occc4n3CC2(C)C(=O)NC2CCCCC2C)cc1 (stereo not given) | 1.99 | 0 | 5.82 | -7.9 | 0.22
33 | Cc1cc(C)cc(NS(=O)(=O)c2ccc3[nH]c(=O)[nH]c3c2)c1 | -4.84 | 0 | 4.12 | 4.47 | -12.5
34 | Cc1nc2c3ccccc3n3c(CCCC(=O)N4CCN(c5cccc(C)c5C)CC4)nnc3n2n1 | -9.33 | 4.99 | 4.96 | 8.04 | 2.23
35 | CC(C)n1cnnc1C1CCCN1C(=O)Nc1ccccc1 (stereo not given) | -5.04 | -10.7 | -4.63 | -9.17 | -5.9
36 | CCC1c2cccn2-c2sc3c(c2CN1C(=O)Nc1cc(OC)ccc1OC)CCCC3 (stereo not given) | -2.98 | 4.72 | 6.68 | -3.59 | 2.82
37 | CC1(C(=O)NC2CCCC2)Cn2c(nc3ccccc32)C(=O)N1Cc1cccc(Br)c1 (stereo not given) | -6.88 | -2.48 | -0.563 | -11.3 | -6.23
38 | CC1(C(=O)NC2CCCC2)Cn2c(ccc2-c2ccccc2)C(=O)N1Cc1cccs1 (stereo not given) | -0.74 | 5.94 | -5.62 | -8.43 | -5.36
